Laboratory results: ChEMBL document CHEMBL4888484, “Replenishing the malaria drug discovery pipeline: Screening and hit evaluation of the MMV Hit Generation Library 1 (HGL1) against asexual blood stage Plasmodium falciparum ,using a nano luciferase reporter read-out” (2022)
The whole screen tested about 150,000 compounds, of which about 540 (0.36%) showed an effect of 50% or more. This is one part of the list.

Tested on: Plasmodium falciparum
Test: Primary screen in NF54 nanoGlo assay, in single point, at 2uM, 72h; a lower Z score goes with more inhibition
Format: functional, Erythrocyte
Conditions: timepoint 72 hour

| Compound | % Inhibition | Z score |
| --- | --- | --- |
| Cc1ccc(Cl)cc1CNC(=O)N(C)CCO | 6% | -0.87 |
| CCCC12CCC(C(=O)Oc3ccc(OCC)c(C#N)c3C#N)(CC1)CC2 | -43% | 5.01 |
| COc1ccc(OC)c(C(=O)N(Cc2cc3cccc(C)c3nc2N(C)C)C[C@H]2CCCO2)c1 | -2% | 0.46 |
| COc1cc(CNc2ccc3c(c2)CCNC3=O)ccc1C | -7% | 1.36 |
| COCc1nc(C(=O)OCCc2cnn(C)c2)cs1 | 0% | -0.02 |
| COc1cc2c(cc1CN1CCC[C@H](NC(C)=O)C1)OCCCO2 | 12% | -1.6 |
| COCCC(=O)N1CCC2(CC1)C[C@@H](c1ccccc1)C(=O)N(C)C2 | 4% | -0.78 |
| O=C(Nc1nc(-c2ccc3c(c2)OCCO3)cs1)c1ccncc1 | -5% | 0.84 |
| Cn1c(C(=O)N(C[C@H]2CCOC2)c2ccccc2)cc2ccccc21 | -7% | 1.22 |
| CCN(CC)CCCN[C@@H](C)C(=O)N1c2ccc(Cl)cc2NC(=O)c2ccccc21 | -15% | 1.75 |
| CCn1ncc(CN(C)Cc2nnc(C)s2)c1C | 4% | -0.62 |
| O=C1CCCN1c1ccc(CNc2nc(=O)c3cn[nH]c3[nH]2)cc1 | 9% | -1.17 |
| Cn1cncc1CC(=O)Nc1ccnc(NC(=O)OC(C)(C)C)c1 | 94% | -14.52 |
| CN1CCN(c2cc(C(=O)N3CC[C@H](Cc4ccc(F)cc4)C3)ccn2)CC1 | 4% | -0.5 |
| CC1CCN([C@@H]2[C@H](O)[C@H](CO)O[C@@H]2CN(Cc2ccc(F)cc2)Cc2ccc(F)cc2)CC1 | -3% | 0.52 |
| CCN1CCN(c2nc3ncn(CC(=O)Nc4ccc(OC)c(Cl)c4)c(=O)c3s2)CC1 | -8% | 1.33 |
| COCC[C@]1(NC(=O)c2ccc(F)cc2)CCN(C(=O)c2cnco2)C1 | -1% | 0.14 |
| CCc1n[nH]c2c1CN(Cc1cccc(O)c1Cl)CC2 | -9% | 0.86 |
| COc1ccc(C2=NS(=O)(=O)N(C)C(C(=O)N3CCc4ccccc4C3)=C2)cc1OC | -9% | 1.74 |
| C[C@@H](c1ccccc1)N(Cc1nc(C(=O)N2CCN(C)CC2)co1)Cc1ccc(Cl)cc1Cl | -2% | 0.3 |
| Cc1ccc(NS(=O)(=O)c2cc(-c3nc(C)c(C)s3)sc2C)c(C)c1 | -5% | 0.62 |

| Compound | % Inhibition | Z score |
| --- | --- | --- |
| NC(=O)c1cnc2n1CCN(C(=O)c1cnc3ccc(F)cc3c1N)C2 | -12% | 1.24 |
| O=C(N1CCn2c(Cc3cccc(F)c3)nnc2C1)[C@@]12CCC[C@@H]1C2 | -10% | 1.31 |
| Cc1ccc(Cl)cc1N1CCC(CNC(=O)c2ncoc2C2CCCO2)C1 (stereo unspecified) | -5% | 0.53 |
| Cc1nsc(C)c1C(=O)N1CCC(S(=O)(=O)N2CCCC2)CC1 | -12% | 1.85 |
| COc1cc(-c2noc(CN3CCCCC[C@@H]3CCO)n2)cc(Cl)c1OC | 2% | -0.29 |
| CCO[C@H]1CN(CC)C[C@@H]1NC(=O)c1cc(=O)cc(C)[nH]1 | -7% | 1.51 |
| O=C(Nc1nc(-c2ccc(Br)o2)ns1)c1ccco1 | -8% | 1.09 |
| O=C1CC[C@@]2(CCCN(c3nc4ccccc4s3)C2)CN1Cc1ccccn1 | 1% | -0.16 |
| COC(=O)c1conc1C(C)(C)NC(=O)c1cc(Cl)cn1C | -12% | 1.21 |
| Cc1ccc(NS(=O)(=O)c2ccc(NC(=O)CN(c3cc(Cl)ccc3C)S(C)(=O)=O)cc2)cc1C | 37% | -4.19 |
| COC(=O)c1ccc(N2CCN(C(=O)C[C@H](C)n3ccnc3)CC2)cc1 | -3% | 0.47 |
| Cc1nn(CC(=O)NCCCOC(C)C)c(=O)c2c(C)n(-c3ccccc3)nc12 | -9% | 1.2 |
| COC(=O)CNC(=O)NC1CCCC1 | 11% | -1.32 |
| Cc1nccc(NC(=O)NC[C@H]2CCCCN2C2CC2)n1 | -11% | 1.36 |
| COC[C@H]1[C@@H](NS(=O)(=O)c2ccc(F)cc2)[C@H]2CCO[C@H]21 | 5% | -0.89 |
| Cc1ccc(C(=O)NC2(c3ncon3)CCOCC2)cc1Cl | -4% | 0.37 |
| O=c1[nH]c(-c2ccccc2Cl)nc2ccccc12 | -13% | 2.13 |
| CCOc1cc(S(=O)(=O)N2CCC[C@H](n3nc4ccccc4n3)C2)c(OCC)cc1-n1cnnn1 | 9% | -1.55 |
| COc1ccc(N[C@@H](C)c2cccc(CO)c2)cn1 | -10% | 1.08 |
| CCN(C(=O)CS(=O)(=O)Cc1coc(-c2ccccc2)n1)C1CC1 | 9% | -1.1 |
| CC(C)C(=O)Nc1nc2c(s1)CN(S(=O)(=O)c1ccccc1)CC2 | -1% | 0.13 |

| Compound | % Inhibition | Z score |
| --- | --- | --- |
| Oc1ccccc1CN(C[C@H]1CCCO1)c1ncc(Br)cn1 | 4% | -0.75 |
| Cc1sc(-c2nnc(C(=O)N3CCCCC3)o2)cc1S(=O)(=O)NC1CCCC1 | -14% | 2.07 |
| COc1nccnc1O[C@H]1CCN(C(=O)CC(F)(F)F)C1 | -5% | 0.56 |
| OC1=Nc2c(ncn2-c2cccnc2)[C@@H](c2cccc(O)c2)C1 | 2% | -0.38 |
| Cc1ccc(CCNC(=O)N2C3CCC2CC(c2ccnn2C)C3)c(C)c1 (stereo unspecified) | -11% | 1.98 |
| COCCn1cc2c(n1)[C@@H](Nc1nccc(OC)n1)CCC2 | -13% | 1.32 |
| C[C@]1(C(=O)O)CCN(C(=O)c2cc3c(s2)CCCC3)C1 | -17% | 3.24 |
| COc1ccc(-n2nc(C)c(CCC(=O)N3CCOCC3)c2Oc2ccccc2F)cc1 | 1% | -0.21 |
| O=C(NCc1ccc2c(c1)OCO2)[C@H]1CCn2c(nc3ccccc32)C1 | -14% | 1.46 |
| Cc1cccc(OCC(=O)N2CCCN(c3nc4c(s3)c(C)nn4-c3ccc(F)cc3)CC2)c1 | -4% | 0.68 |
| CCC1C(C(=O)O)CCN1S(=O)(=O)c1c(C)ccc2cccnc12 (stereo unspecified) | 5% | -0.53 |
| Cc1nc[nH]c1CN1C[C@H]2CC[C@@H](C1)N(C(=O)CCc1ccccn1)C2 | -13% | 1.93 |
| Cc1oc(-c2ccc(Cl)cc2)cc1C(=O)NC1CC1 | -9% | 1.55 |
| CCOCCCC(=O)N1CCc2nc[nH]c2[C@@]12CCN(C(=O)OC(C)(C)C)C2 | -15% | 2.19 |
| COc1ccc(C(=O)NCCc2csc(-n3nc(C)cc3C)n2)cc1OC | 0% | 0.02 |
| COc1ccc(-c2noc(NC3CCCC3CNC(=O)OC(C)(C)C)n2)cc1OC (stereo unspecified) | -2% | 0.41 |
| COc1ccc(NC(=O)Nc2cc(C)cc(-n3nc4ccccc4n3)c2O)cc1 | -4% | 0.48 |
| CN(Cc1ncc[nH]1)C(=O)NC[C@H]1CC[C@@H]2C[C@H]1C2(C)C | -4% | 0.5 |
| NC(=O)[C@@H]1CCCCN1CCn1nc2ccccn2c1=O | -4% | 0.57 |
| CCNC(=O)c1ccc(COc2ccc3c(c2)[C@H](c2ccc(F)cc2)N(C(=O)CC(C)C)CC3)o1 | -7% | 0.66 |
| Cc1cnc(CN2CCCC[C@@H]2CCO)cn1 | -5% | 0.84 |

| Compound | % Inhibition | Z score |
| --- | --- | --- |
| CN1CCN(C(=O)CNC(=O)c2cccc(Cl)c2)CC1 | 34% | -4.35 |
| CC1(C)C[C@@H]1c1n[nH]c(=O)n1C1CCCC1 | -3% | 0.38 |
| CC[C@H](NC(=O)N1CCc2c(nnn2-c2ccccc2)C1)C1CCOCC1 | 9% | -1.19 |
| Cc1cc(NC(=O)CN2CCC(C)CC2c2ccco2)n(C)n1 (stereo unspecified) | -5% | 0.99 |
| O=C(Nc1ccccn1)[C@H]1CC(=O)N(c2n[nH]c3cc(Br)ccc23)C1 | -9% | 1.21 |
| O=C(Nc1ccccc1)Nc1ccc2nc(NC(=O)c3ccccc3)sc2c1 | -7% | 1.23 |
| CC(C)(C)c1cc(C(=O)NS(=O)(=O)CC2CCOCC2)[nH]n1 | 12% | -1.47 |
| O=C1NC2(CCCC2)C(=O)N1CCN1CCc2ccccc2C1 | 3% | -0.27 |
| Cn1c(=O)c2ccccc2n1CC1(C)COC1 | -1% | 0.21 |
| COCCCNCCOCCOc1ccc(Cl)cc1Br | -15% | 2.05 |
| COc1ccc(-c2ccc([C@H]3OCCN[C@@H]3C)cc2)c(C#N)c1 | 1% | -0.2 |
| CC(=O)N1CCN(CC2=NS(=O)(=O)c3ccccc3N2)CC1 | 12% | -2.05 |
| CC1(C)OC(=O)c2c1ccnc2N1CCO[C@@H](Cn2cccn2)C1 | -2% | 0.29 |
| Cc1nc(C(=O)NC[C@@]23CCC[C@@H]2OCC3)c(-c2ccccc2)o1 | 0% | -0.01 |
| C=CCNC(=O)[C@H](C)N(C)Cc1ccc(C)o1 | -13% | 1.19 |
| O=C(NCc1ccc(N2CCOCC2)cc1)c1cccs1 | -24% | 2.23 |
| O=C(CCC(=O)Nc1cccnc1)NCc1ccc2c(c1)OCO2 | 32% | -0.57 |
| Cc1c(-c2ccc(F)cc2)[nH]c2ccc(CNC(=O)c3nnc4n3CCCC4)cc12 | 4% | -0.45 |
| CCCn1ncc(C(=O)N2C[C@H]3CC=CC[C@H]3C2)c1C | -10% | 1.85 |
| Cc1cc(CC(=O)N[C@H](C)CC2CCCCC2)no1 | -10% | 1.06 |
